From PubChem BioAssay AID624202 (National Center for Advancing Translational Sciences (NCATS), 2012)
In all, about 380,000 compounds went through this assay and about 4,000 (1.1%) were called active. The inconclusive results got no clear call from the source; some entries with a clear call stand among them for comparison. Calls come from the whole dose curve; as a rule, active = well fitted activation curve with a large enough effect; inconclusive = small, poorly fitted or top-dose-only effect; inactive = no such curve, though single readings can be large or run the other way. Potencies beside an inconclusive call are fits to weak or partial responses and may not hold up.

Assay: qHTS Assay to Identify Small Molecule Activators of BRCA1 Expression; note: nearly all actives have a fitted effect of over 80% in size
Settings: MCF7-BRCA1-FFLuc reporter, luminescence, 48 h; activation: at 46.1 µM (top of the series), scaled: vehicle 0%, 10 µM genistein 100% unless noted
Outline: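 MCF7-BRCA1-FFLuc, 2000 cells/well; 2 h attach, 37 °C/5% CO2; compound 48 h; luciferase substrate 15 min; luminescence end-point. Norm. to genistein 10 microM max activation and DMSO; concentration-response curves fitted.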
Potency is the fitted concentration of half-maximal effect; tags give direction and shape of the fitted curve.

With `CCOC(=O)c1sc(N/N=C/c2cccc(C)c2)nc1C` as the compound, how does the Potency read?
Its Potency is active: 2.82 µM.

For `Cc1ccc2nc(SCC(=O)N3CCN(C(=O)c4ccco4)CC3)[nH]c2c1`, which “activation” value is on record?
Its value is inactive: -59.3%.

For `CCOC(=O)c1snc(-c2ccc(F)cc2)c1N`, which Potency is on record?
Its Potency is inconclusive: 15.8 µM [activator, partial curve, poor fit].

For `Cc1cc(C(=O)Nc2cc(C(C)(C)C)on2)c(C)o1`, which Potency is on record?
Its Potency is inconclusive: 12.6 µM [activator, partial curve, poor fit].

With `CCOc1ccc(N=C/C=C/c2ccccc2)c(O)c1` as the compound, how does the Potency read?
The Potency was inconclusive: 35.5 µM [activator, single point].

Which Potency does the source give for `COc1ccc(OCc2cc(C(=O)N3CCN(CC4CC4)CC3)no2)c(Cl)c1` here?
Its Potency is inconclusive: 11.2 µM [activator, partial curve, poor fit].

For `Cc1cccc(N=c2oc3cc(O)ccc3cc2C(N)=O)c1`, which Potency is on record?
Its Potency is active: 11.2 µM.

Which Potency does the source give for `COc1ccccc1N1CCN(/N=C/c2ccc([N+](=O)[O-])cc2)CC1` here?
The Potency was active: 5.01 µM.

With `Cc1nn(-c2ccccc2)c(Cl)c1/C=N/Nc1ccc(S(=O)(=O)Nc2ccccc2C(=O)O)cc1[N+](=O)[O-]` as the compound, how does the “activation” value read?
The value was inactive: -15.5%.

For `Cc1ccc(-c2nc3cc(Cl)ccc3o2)cc1`, which Potency is on record?
Its Potency is inconclusive: 20 µM [activator, single point].

With `O=C(NC(=S)Nc1ccc(O)cc1)c1ccccc1Cl` as the compound, how does the Potency read?
Its Potency is inconclusive: 2 µM [activator, full curve, poor fit].

For `CCC1(CC)Nc2ccccc2C(=O)N1c1ccc(OC)cc1`, which Potency is on record?
Its Potency is inconclusive: 1.58 µM [activator, partial curve, poor fit].

Which Potency does the source give for `Cc1ccc(C2=NN=C(NC(=O)C(F)(F)F)SC2)cc1` here?
Its Potency is inconclusive: 7.94 µM [activator, partial curve, poor fit].

Which Potency does the source give for `COc1ccc(-c2nnc(SCc3ccccc3)n2N)cc1` here?
The Potency was inconclusive: 14.1 µM [activator, partial curve, poor fit].

With `COc1ccccc1OCCNC(=O)c1ccc2c(c1)OCCO2` as the compound, how does the Potency read?
The Potency was inconclusive: 2 µM [activator, partial curve, poor fit].

Which Potency does the source give for `COc1cc2c(cc1N)-c1ccc(N)cc1C2=O` here?
Its Potency is active: 10 µM.

With `O=C(N/N=C1\CCCc2ccccc21)c1cccc([N+](=O)[O-])c1` as the compound, how does the Potency read?
Its Potency is inconclusive: 35.5 µM [activator, single point].

With `COc1ccc(S(=O)(=O)N(C)c2ccc(C(=O)N3CCCCC3)cc2)cc1` as the compound, how does the “activation” value read?
Its value is inactive: -24.6%.

With `COCc1cc(C)nc(SCC(=O)Nc2ccc(C)c(C)c2)c1C#N` as the compound, how does the Potency read?
Its Potency is active: 3.98 µM.

Which Potency does the source give for `c1ccc(CSc2cc3ccccc3[nH]2)cc1` here?
The Potency was inconclusive: 14.1 µM [activator, partial curve, poor fit].

Which Potency does the source give for `Fc1ccc(/C=N/Nc2cc(N3CCOCC3)ncn2)cc1` here?
The Potency was inconclusive: 3.16 µM [activator, partial curve, poor fit].

With `O=C(Cc1cccs1)NCc1cccc(Br)c1` as the compound, how does the Potency read?
Its Potency is active: 3.98 µM.

For `Cc1ccc2c(c1)C(=O)CC(c1ccc3c(c1)OCCO3)O2` (configuration not stated), which Potency is on record?
The Potency was inconclusive: 11.2 µM [activator, partial curve, poor fit].

For `O=C(/C=C/c1ccco1)NC1=NCCS1`, which Potency is on record?
The Potency was inconclusive: 1.12 µM [activator, full curve, poor fit].

Which Potency does the source give for `CCOc1ccc(/C=C2\CCc3ccccc3C2=O)cc1` here?
The Potency was inconclusive: 12.6 µM [activator, partial curve, poor fit].

Which “activation” value does the source give for `O=C(N/N=C/C=C/c1ccco1)c1cccc([N+](=O)[O-])c1` here?
Its value is inactive: -28.1%.

With `O=C(CCS(=O)(=O)c1ccccc1)Nc1ccc(-c2nc3ccccc3s2)cc1` as the compound, how does the Potency read?
The Potency was inconclusive: 0.794 µM [activator, full curve, poor fit].

For `Cc1cc(C(=O)Nc2nc3ccc(Cl)cc3s2)nn1C`, which Potency is on record?
The Potency was inconclusive: 1.41 µM [activator, full curve, poor fit].

Which Potency does the source give for `Cc1ccccc1C(=O)c1cccn1CC(=O)NCc1ccc2c(c1)OCO2` here?
Its Potency is inconclusive: 17.8 µM [activator, single point].

With `CCCN1CNc2c(c(=O)[nH]c(=S)n2CCc2cccc(C)c2C)C1` as the compound, how does the “activation” value read?
The value was inactive: -18.2%.

With `c1ccc(OCCCc2nc(-c3ccccn3)no2)cc1` as the compound, how does the Potency read?
Its Potency is inconclusive: 15.8 µM [activator, single point].

For `O=c1[nH]c(N/N=C\c2ccc(F)cc2)nc2ccccc12`, which Potency is on record?
The Potency was inconclusive: 0.562 µM [activator, full curve, poor fit].

For `N#Cc1cccc(-n2nnnc2-c2ccc3c(c2)OCO3)c1`, which Potency is on record?
The Potency was inconclusive: 8.91 µM [activator, partial curve, poor fit].

Which Potency does the source give for `Cc1cccc(OCCn2c(=O)sc3ccccc32)c1` here?
The Potency was active: 3.55 µM.

With `Cc1ccc(C2C=NN(c3ccccc3)C2=O)cc1` (configuration not stated) as the compound, how does the Potency read?
Its Potency is inconclusive: 35.5 µM [activator, single point].

For `C[C@H](O)[C@H](O)[C@H]1CNc2nc(N)[nH]c(=O)c2N1`, which “activation” value is on record?
The value was inactive: -0.903%.

Which Potency does the source give for `CCCc1cc(C(=O)Nc2cccc([N+](=O)[O-])c2)cs1` here?
The Potency was inconclusive: 8.91 µM [activator, partial curve, poor fit].

With `CCCCCCSc1nsc(N)n1` as the compound, how does the Potency read?
The Potency was inconclusive: 20 µM [activator, partial curve, poor fit].

Which “activation” value does the source give for `O=C1CCN(Cc2nc(-c3ccc(Cl)cc3)no2)CCN1` here?
The value was inactive: 4.29%.

With `O=C(NCCc1ccccc1)c1cccc(Br)c1` as the compound, how does the Potency read?
The Potency was active: 12.6 µM.

For `CC(=NNc1ccc([N+](=O)[O-])cn1)c1ccccc1`, which Potency is on record?
Its Potency is active: 10 µM.

For `O=C(NCc1csc(-c2cccs2)n1)C1CCC1`, which Potency is on record?
The Potency was inconclusive: 10 µM [activator, partial curve, poor fit].

Which Potency does the source give for `CCOC(=O)c1c(SCC(=O)Nc2nccs2)nc(C)c(C)c1C` here?
Its Potency is inconclusive: 6.31 µM [activator, partial curve, poor fit].

For `CCOc1ccc(NC(=O)c2nccnc2CO)cc1`, which Potency is on record?
Its Potency is active: 5.62 µM.

With `CC(C)(C)N=C1NN=C(c2ccc(S(=O)(=O)N3CCCCC3)cc2)CS1` as the compound, how does the “activation” value read?
Its value is inactive: -38%.

Which “activation” value does the source give for `O=S(=O)(Nc1cccc2c1CCCC2)c1cccc(C(F)(F)F)c1` here?
The value was inactive: -30.8%.

For `Nc1c(-c2ccc(Cl)cc2)cnn1-c1ccccc1`, which Potency is on record?
The Potency was inconclusive: 1.26 µM [activator, full curve, poor fit].
